Reference: PMC4336329 (PLoS ONE, 2015)
Screen size: about 310,000 compounds; about 2,200 (0.71%) showed an effect of 50% or more. The effect is printed as a negative number. Some of the results follow.

What follows are compounds tested against human ether-à-go-go-related gene (hERG) potassium channel (human, UniProt Q12809) (assay: primary screen, population patch clamp on CHO cells stably expressing hERG).
Chain of human ether-à-go-go-related gene (hERG) potassium channel (Q12809 whole entry, looked up): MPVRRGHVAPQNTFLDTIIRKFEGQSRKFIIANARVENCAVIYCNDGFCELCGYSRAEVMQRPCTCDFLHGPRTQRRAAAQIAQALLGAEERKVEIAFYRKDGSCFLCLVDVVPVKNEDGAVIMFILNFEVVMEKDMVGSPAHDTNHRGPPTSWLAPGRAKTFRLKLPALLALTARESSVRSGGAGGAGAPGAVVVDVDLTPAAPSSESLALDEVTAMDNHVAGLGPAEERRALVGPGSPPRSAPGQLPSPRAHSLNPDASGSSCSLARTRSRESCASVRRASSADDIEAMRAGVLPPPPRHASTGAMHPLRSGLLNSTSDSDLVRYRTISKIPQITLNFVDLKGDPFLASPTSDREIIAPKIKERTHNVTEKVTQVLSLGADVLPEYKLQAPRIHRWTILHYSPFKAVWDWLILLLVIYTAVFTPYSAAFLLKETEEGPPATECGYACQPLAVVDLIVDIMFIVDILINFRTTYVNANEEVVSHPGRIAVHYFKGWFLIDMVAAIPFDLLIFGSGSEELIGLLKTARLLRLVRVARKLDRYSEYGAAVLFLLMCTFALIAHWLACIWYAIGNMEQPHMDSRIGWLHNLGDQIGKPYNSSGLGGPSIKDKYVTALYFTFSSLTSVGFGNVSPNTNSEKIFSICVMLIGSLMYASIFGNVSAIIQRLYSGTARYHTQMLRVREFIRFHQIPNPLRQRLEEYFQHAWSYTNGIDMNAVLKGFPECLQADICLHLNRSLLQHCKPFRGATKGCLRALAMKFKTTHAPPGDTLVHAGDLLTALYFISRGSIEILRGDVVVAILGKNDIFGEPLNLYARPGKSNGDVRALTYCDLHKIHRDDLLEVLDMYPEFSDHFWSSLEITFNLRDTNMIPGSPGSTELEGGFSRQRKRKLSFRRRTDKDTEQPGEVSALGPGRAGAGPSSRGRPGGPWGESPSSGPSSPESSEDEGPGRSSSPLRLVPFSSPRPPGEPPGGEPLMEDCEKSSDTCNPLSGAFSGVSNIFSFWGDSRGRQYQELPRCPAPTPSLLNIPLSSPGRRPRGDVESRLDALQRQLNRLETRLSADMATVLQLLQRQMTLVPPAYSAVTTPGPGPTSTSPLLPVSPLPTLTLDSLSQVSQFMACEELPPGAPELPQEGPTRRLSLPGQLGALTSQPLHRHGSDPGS

| SMILES | hERG current change (%, negative = inhibition) at 1uM |
| --- | --- |
| CCN(CC(=O)NC1CC1)S(=O)(=O)c1ccccc1 | 10.3% |
| Cc1onc(-c2ccccc2Cl)c1C(=O)N1CCC(Cc2ccccc2)CC1 | 14% |
| Fc1ccc(NC(=S)Nc2ccc(Cl)cc2Cl)cc1 | 9.24% |
| COc1ccc(C2CC(c3ccccc3)=NN2C(=O)CN2CCN(Cc3ccccc3)CC2)cc1 (stereo not drawn) | 5.15% |
| CCN(CC)S(=O)(=O)c1ccc(-n2c(=O)c(C(C)C)c(C)n2C)cc1 | 17% |
| CCCOc1ccc(-c2nc(-c3ccc(N)cc3)cs2)cc1 | 9.76% |
| CN(CCOc1ccccc1)C(=O)c1ccc(N2CCCC2)c([N+](=O)[O-])c1 | 10.6% |
| CN1CCC(N(C)C(=O)/C(C#N)=C/c2ccccc2)CC1.Cl | 14.2% |
| CCC(=O)N1N=C(c2cccs2)CC1c1ccco1 (stereo not drawn) | 9.49% |
| O=C(NCCN1CCOCC1)C1CC(=O)N(c2ccc(Cl)cc2)C1 (stereo not drawn) | 15.4% |
| S=C(NC12CC3CC(CC(C3)C1)C2)N1CCCC1 | 13.5% |
| CCN(CC)c1ccc(C(=O)NNC(=O)C2CSC3(C)CCC(=O)N23)cc1 (stereo not drawn) | 5.2% |
| O=C(Nc1nccs1)c1ccc(S(=O)(=O)NCC2CCCCC2)cc1 | 3.75% |
| CC(Oc1ccc(F)cc1)C(=O)Nc1ccccc1C(=O)N1CCCCC1 (stereo not drawn) | 4.71% |
| C=CCc1cc(C=O)cc(OCC)c1O | 6.77% |
| N#CCC(=O)Nc1cc(C(F)(F)F)ccc1N1CCOCC1 | 9.49% |
| CCC(C(=O)O/N=C(\N)c1ccc(C)cc1)c1ccccc1 (stereo not drawn) | 6.84% |
| COc1ccc(C2C(C(C)=O)=C(O)C(=O)N2CCc2ccccc2)c(OC)c1 (stereo not drawn) | 6.24% |
| Cc1ccc(NC(=O)CCNS(=O)(=O)c2ccc3[nH]c(=O)oc3c2)c(C)c1 | 14.2% |
| Cc1ccc(N2C(=O)CC(=O)NC2=O)cc1Cl | 11.4% |
| C=CCOc1c(Cl)cc(C(=S)N2CCCC2)cc1OCC | 9.22% |
| COc1ccc(-c2c(C)n([O-])c3c([n+]2=O)CCCCC3)cc1OC | 16.6% |
| O=C1NCCCCC1NS(=O)(=O)c1ccc(F)c(F)c1 (stereo not drawn) | 9.71% |

| SMILES | hERG current change (%, negative = inhibition) at 1uM |
| --- | --- |
| COC(=O)CC1C(=O)NCCN1Cc1cn(-c2ccc(C)cc2)nc1-c1cccc(C)c1 (stereo not drawn) | 8.32% |
| COc1ccc(C(C)=O)cc1COc1cccc2c1OC(C)(C)C2 | 3.79% |
| O=C(NC(=S)NCc1ccccc1)c1ccc(Br)cc1 | 8.85% |
| O=S(=O)(c1ccc(Cl)c(F)c1)N1CCC(c2nc(-c3ccncc3)no2)CC1 | -5.01% |
| O=C(CSc1nc(-c2ccccc2)cc(C(F)(F)F)n1)N1CCOCC1 | 11.6% |
| O=S(=O)(Nc1cccc(-c2ccc(N3CCCCCC3)nn2)c1)c1ccc(C(F)(F)F)cc1 | 15.1% |
| CCOc1ccccc1NC(=O)CCC(=O)Nc1ccc2nc(N3CCN(C)CC3)cc(C)c2c1 | 11.5% |
| Cc1cccc(-n2ncc3c2CCCC3NC(=O)C2CCOCC2)c1C (stereo not drawn) | 14.1% |
| CC(C)CN(C(=O)COC(=O)COc1ccc2ccccc2c1)c1c(N)n(Cc2ccccc2)c(=O)[nH]c1=O | 6.3% |
| CC1CN(CCOCCSc2ccc(Cl)cc2)CC(C)O1.O=C(O)C(=O)O (stereo not drawn) | 3.82% |
| Cc1cc(C)n2ncc(/C(N)=N/OC(=O)Nc3ccccc3)c2n1 | 7.5% |
| Cn1c(=O)c2c(nc(NC3CCCCC3)n2Cc2ccccc2)n(C)c1=O | 18.9% |
| NC(=O)C1CCN(C(=O)CN(C2CCCCC2)S(=O)(=O)c2ccc(F)cc2)CC1 | 10.9% |
| COc1cccc(N2CC(NS(=O)(=O)c3ccc4ccccc4c3)CC2=O)c1 (stereo not drawn) | 7.14% |
| CC(C(=O)Nc1sccc1C(N)=O)N1C(=O)C2CC=CCC2C1=O (stereo not drawn) | 7.06% |
| COc1ccc(-c2ccc(SCC(=O)N3CCOCC3)nn2)cc1 | 4.59% |
| Cc1cccc(C(=O)NNC(=O)c2ccccc2C)c1 | 5.64% |
| O=C(NCc1ccccn1)c1cn(Cc2ccccc2)nn1 | 8.87% |
| Cc1ccc(N2CC(C(=O)NC(C)CCc3ccccc3)CC2=O)cc1 (stereo not drawn) | -5.2% |
| COc1cc(C(=O)CCN2CCC(c3ccccc3)C2)cc(OC)c1OC.Cl (stereo not drawn) | -2.63% |
| Cc1ccc(C)c(NC(=O)COC(=O)c2cccc(S(=O)(=O)N3CCCCC3)c2)c1 | 4.61% |
| Cc1cc(C)c2c(C)nn(-c3ccccc3)c2n1 | 17.2% |
